Measured values reported in the supplement of paper PMC8728848.
The list shows a part of the results.

Key:
Assay in all cases: glycan array binding signal (z-score within array); higher = stronger binding
Settings in all cases: glycan notation: IUPAC condensed, linker removed
[1] = molecular target: GlcNAc(b1-3)Gal(b1-3)GalNAc
Method in brief: (§1)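 The Consortium for Functional Glycomics database supplied 3228 glycan arrays, of which those lacking an available protein sequence were dropped. The binding signal, a within-array Z-score, was averaged across arrays of the same protein sequence and across linkers. Negative scores can be read as non-binding.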

GlcNAc(b1-3)Gal(b1-4)Glc = molecular target: GlcNAc(b1-3)Gal(b1-4)Glc
Method in brief: as §1

[2] = molecular target: GlcNAc(b1-3)Gal(b1-4)GlcNAc
Method in brief: as §1

[3] = molecular target: GlcNAc(b1-3)Gal(b1-4)GlcNAc(b1-2)Man(a1-3)[GlcNAc(b1-3)Gal(b1-4)GlcNAc(b1-2)Man(a1-6)]Man(b1-4)GlcNAc(b1-4)GlcNAc
Method in brief: as §1

[4] = molecular target: GlcNAc(b1-3)Gal(b1-4)GlcNAc(b1-2)Man(a1-3)[GlcNAc(b1-3)Gal(b1-4)GlcNAc(b1-2)Man(a1-6)]Man(b1-4)GlcNAc(b1-4)[Fuc(a1-6)]GlcNAc
Method in brief: as §1

[5] = molecular target: GlcNAc(b1-3)Gal(b1-4)GlcNAc(b1-2)[GlcNAc(b1-3)Gal(b1-4)GlcNAc(b1-6)]Man(a1-6)[GlcNAc(b1-3)Gal(b1-4)GlcNAc(b1-2)Man(a1-3)]Man(b1-4)GlcNAc(b1-4)GlcNAc
Method in brief: as §1

[6] = molecular target: GlcNAc(b1-3)Gal(b1-4)GlcNAc(b1-3)Gal(b1-4)GlcNAc
Method in brief: as §1

[7] = molecular target: GlcNAc(b1-3)Gal(b1-4)GlcNAc(b1-3)Gal(b1-4)GlcNAc(b1-2)Man(a1-3)[GlcNAc(b1-3)Gal(b1-4)GlcNAc(b1-3)Gal(b1-4)GlcNAc(b1-2)Man(a1-6)]Man(b1-4)GlcNAc(b1-4)GlcNAc
Method in brief: as §1

[8] = molecular target: GlcNAc(b1-3)Gal(b1-4)GlcNAc(b1-3)Gal(b1-4)GlcNAc(b1-2)Man(a1-3)[GlcNAc(b1-3)Gal(b1-4)GlcNAc(b1-3)Gal(b1-4)GlcNAc(b1-2)Man(a1-6)]Man(b1-4)GlcNAc(b1-4)[Fuc(a1-6)]GlcNAc
Method in brief: as §1

[9] = molecular target: GlcNAc(b1-3)Gal(b1-4)GlcNAc(b1-3)Gal(b1-4)GlcNAc(b1-2)[GlcNAc(b1-3)Gal(b1-4)GlcNAc(b1-3)Gal(b1-4)GlcNAc(b1-6)]Man(a1-6)[GlcNAc(b1-3)Gal(b1-4)GlcNAc(b1-3)Gal(b1-4)GlcNAc(b1-2)Man(a1-3)]Man(b1-4)GlcNAc(b1-4)[Fuc(a1-6)]GlcNAc
Method in brief: as §1

[10] = molecular target: GlcNAc(b1-3)Gal(b1-4)GlcNAc(b1-3)Gal(b1-4)GlcNAc(b1-3)Gal(b1-4)GlcNAc(b1-2)Man(a1-3)[GlcNAc(b1-3)Gal(b1-4)GlcNAc(b1-3)Gal(b1-4)GlcNAc(b1-3)Gal(b1-4)GlcNAc(b1-2)Man(a1-6)]Man(b1-4)GlcNAc(b1-4)GlcNAc
Method in brief: as §1

[11] = molecular target: GlcNAc(b1-3)Gal(b1-4)GlcNAc(b1-3)Gal(b1-4)GlcNAc(b1-3)Gal(b1-4)GlcNAc(b1-2)Man(a1-3)[GlcNAc(b1-3)Gal(b1-4)GlcNAc(b1-3)Gal(b1-4)GlcNAc(b1-3)Gal(b1-4)GlcNAc(b1-2)Man(a1-6)]Man(b1-4)GlcNAc(b1-4)[Fuc(a1-6)]GlcNAc
Method in brief: as §1

[12] = molecular target: GlcNAc(b1-3)Gal(b1-4)GlcNAc(b1-3)Gal(b1-4)GlcNAc(b1-3)Gal(b1-4)GlcNAc(b1-2)[GlcNAc(b1-3)Gal(b1-4)GlcNAc(b1-3)Gal(b1-4)GlcNAc(b1-3)Gal(b1-4)GlcNAc(b1-6)]Man(a1-6)[GlcNAc(b1-3)Gal(b1-4)GlcNAc(b1-3)Gal(b1-4)GlcNAc(b1-3)Gal(b1-4)GlcNAc(b1-2)Man(a1-3)]Man(b1-4)GlcNAc(b1-4)[Fuc(a1-6)]GlcNAc
Method in brief: as §1

[13] = molecular target: GlcNAc(b1-3)Gal(b1-4)GlcNAc(b1-3)Gal(b1-4)GlcNAc(b1-3)Gal(b1-4)GlcNAc(b1-3)Gal(b1-4)GlcNAc(b1-2)Man(a1-3)[GlcNAc(b1-3)Gal(b1-4)GlcNAc(b1-3)Gal(b1-4)GlcNAc(b1-3)Gal(b1-4)GlcNAc(b1-3)Gal(b1-4)GlcNAc(b1-2)Man(a1-6)]Man(b1-4)GlcNAc(b1-4)GlcNAc
Method in brief: as §1

[14] = molecular target: GlcNAc(b1-3)Gal(b1-4)GlcNAc(b1-3)Gal(b1-4)GlcNAc(b1-3)Gal(b1-4)GlcNAc(b1-3)Gal(b1-4)GlcNAc(b1-2)Man(a1-3)[GlcNAc(b1-3)Gal(b1-4)GlcNAc(b1-3)Gal(b1-4)GlcNAc(b1-3)Gal(b1-4)GlcNAc(b1-3)Gal(b1-4)GlcNAc(b1-2)Man(a1-6)]Man(b1-4)GlcNAc(b1-4)[Fuc(a1-6)]GlcNAc
Method in brief: as §1

[15] = molecular target: GlcNAc(b1-3)Gal(b1-4)GlcNAc(b1-3)Gal(b1-4)GlcNAc(b1-3)Gal(b1-4)GlcNAc(b1-3)Gal(b1-4)GlcNAc(b1-2)[GlcNAc(b1-3)Gal(b1-4)GlcNAc(b1-3)Gal(b1-4)GlcNAc(b1-3)Gal(b1-4)GlcNAc(b1-3)Gal(b1-4)GlcNAc(b1-6)]Man(a1-6)[GlcNAc(b1-3)Gal(b1-4)GlcNAc(b1-3)Gal(b1-4)GlcNAc(b1-3)Gal(b1-4)GlcNAc(b1-3)Gal(b1-4)GlcNAc(b1-2)Man(a1-3)]Man(b1-4)GlcNAc(b1-4)[Fuc(a1-6)]GlcNAc
Method in brief: as §1

[16] = molecular target: GlcNAc(b1-3)Gal(b1-4)GlcNAc(b1-3)Gal(b1-4)GlcNAc(b1-3)GalNAc
Method in brief: as §1

[17] = molecular target: GlcNAc(b1-3)Gal(b1-4)GlcNAc(b1-3)GalNAc
Method in brief: as §1

[18] = molecular target: GlcNAc(b1-3)Gal(b1-4)GlcNAc(b1-3)[GlcNAc(b1-3)Gal(b1-4)GlcNAc(b1-3)]GalNAc
Method in brief: as §1

[19] = molecular target: GlcNAc(b1-3)Gal(b1-4)GlcNAc(b1-6)[Gal(b1-3)]GalNAc
Method in brief: as §1

[20] = molecular target: GlcNAc(b1-3)Gal(b1-4)GlcNAc(b1-6)[GlcNAc(b1-3)Gal(b1-3)]GalNAc
Method in brief: as §1

[21] = molecular target: GlcNAc(b1-3)Gal(b1-4)GlcNAc(b1-6)[GlcNAc(b1-3)]Gal(b1-4)GlcNAc
Method in brief: as §1

GlcNAc(b1-3)GalNAc = molecular target: GlcNAc(b1-3)GalNAc
Method in brief: as §1

GlcNAc(b1-3)Man = molecular target: GlcNAc(b1-3)Man
Method in brief: as §1

[22] = molecular target: GlcNAc(b1-3)[GlcNAc(b1-4)][GlcNAc(b1-6)]GlcNAc
Method in brief: as §1

[23] = molecular target: GlcNAc(b1-3)[GlcNAc(b1-6)]Gal(b1-4)GlcNAc
Method in brief: as §1

[24] = molecular target: GlcNAc(b1-3)[GlcNAc(b1-6)]GalNAc
Method in brief: as §1

[25] = molecular target: GlcNAc(b1-4)Gal(b1-4)GlcNAc
Method in brief: as §1

GlcNAc(b1-4)GlcNAc = molecular target: GlcNAc(b1-4)GlcNAc
Method in brief: as §1

[26] = molecular target: GlcNAc(b1-4)GlcNAc(b1-4)GlcNAc
Method in brief: as §1

[27] = molecular target: GlcNAc(b1-4)GlcNAc(b1-4)GlcNAc(b1-4)GlcNAc(b1-4)GlcNAc
Method in brief: as §1

[28] = molecular target: GlcNAc(b1-4)GlcNAc(b1-4)GlcNAc(b1-4)GlcNAc(b1-4)GlcNAc(b1-4)GlcNAc
Method in brief: as §1

[29] = molecular target: GlcNAc(b1-4)[GlcNAc(b1-6)]GalNAc
Method in brief: as §1

[30] = molecular target: GlcNAc(b1-6)Gal(b1-4)GlcNAc
Method in brief: as §1

GlcNAc(b1-6)GalNAc = molecular target: GlcNAc(b1-6)GalNAc
Method in brief: as §1

[31] = molecular target: GlcNAc6S(b1-3)Gal(b1-4)GlcNAc
Method in brief: as §1

Kdn(a2-3)Gal(b1-3)GalNAc = molecular target: Kdn(a2-3)Gal(b1-3)GalNAc
Method in brief: as §1

Kdn(a2-3)Gal(b1-3)GlcNAc = molecular target: Kdn(a2-3)Gal(b1-3)GlcNAc
Method in brief: as §1

Kdn(a2-3)Gal(b1-4)Glc = molecular target: Kdn(a2-3)Gal(b1-4)Glc
Method in brief: as §1

Kdn(a2-3)Gal(b1-4)GlcNAc = molecular target: Kdn(a2-3)Gal(b1-4)GlcNAc
Method in brief: as §1

[32] = molecular target: Kdn(a2-3)Gal(b1-4)[Fuc(a1-3)]GlcNAc
Method in brief: as §1

Kdn(a2-6)Gal(b1-4)GlcNAc = molecular target: Kdn(a2-6)Gal(b1-4)GlcNAc
Method in brief: as §1

[33] = molecular target: Man(a1-2)Man(a1-2)Man(a1-3)Man
Method in brief: as §1

[34] = molecular target: Man(a1-2)Man(a1-2)Man(a1-6)[Man(a1-3)]Man
Method in brief: as §1

Man(a1-2)Man(a1-3)Man = molecular target: Man(a1-2)Man(a1-3)Man
Method in brief: as §1

B1: SSR2 (Sclerotium rolfsii) (protein)
chain: MVYKITVRVYQTNPDAFFHPVEKTVWKYANGGTWSITDDQHVLTMGGSGTSGTLRFHADNGESFTATFGVHNYKRWCDIVTNLAADETGMVINQQYYSQKNREEARERQLSNYQVKNAKGRNFQIVYTEAEGNDLHANLIIG
glycan array binding signal (z-score) [1]: 3.63 | glycan array binding signal (z-score) (GlcNAc(b1-3)Gal(b1-4)Glc): -0.198 | glycan array binding signal (z-score) [2]: 0.368 | glycan array binding signal (z-score) [3]: 0.29 | glycan array binding signal (z-score) [4]: 0.434 | glycan array binding signal (z-score) [5]: 0.408 | glycan array binding signal (z-score) [6]: 0.873 | glycan array binding signal (z-score) [7]: 0.693 | glycan array binding signal (z-score) [8]: 1.44 | glycan array binding signal (z-score) [9]: 0.624 | glycan array binding signal (z-score) [10]: 0.861 | glycan array binding signal (z-score) [11]: 2.18 | glycan array binding signal (z-score) [12]: 1.02 | glycan array binding signal (z-score) [13]: 2.3 | glycan array binding signal (z-score) [14]: 2.55 | glycan array binding signal (z-score) [15]: 1.3 | glycan array binding signal (z-score) [16]: 0.61 | glycan array binding signal (z-score) [17]: 0.796 | glycan array binding signal (z-score) [18]: 0.552 | glycan array binding signal (z-score) [19]: 1.82 | glycan array binding signal (z-score) [20]: 1.62 | glycan array binding signal (z-score) [21]: 0.989 | glycan array binding signal (z-score) (GlcNAc(b1-3)GalNAc): -0.192 | glycan array binding signal (z-score) (GlcNAc(b1-3)Man): -0.149 | glycan array binding signal (z-score) [22]: -0.291 | glycan array binding signal (z-score) [23]: 0.608 | glycan array binding signal (z-score) [24]: -0.273 | glycan array binding signal (z-score) [25]: -0.288 | glycan array binding signal (z-score) (GlcNAc(b1-4)GlcNAc): -0.155 | glycan array binding signal (z-score) [26]: 0.796 | glycan array binding signal (z-score) [27]: 0.569 | glycan array binding signal (z-score) [28]: -0.151 | glycan array binding signal (z-score) [29]: -0.281 | glycan array binding signal (z-score) [30]: 0.916 | glycan array binding signal (z-score) (GlcNAc(b1-6)GalNAc): 0.099 | glycan array binding signal (z-score) [31]: -0.272 | glycan array binding signal (z-score) (Kdn(a2-3)Gal(b1-3)GalNAc): 0.889 | glycan array binding signal (z-score) (Kdn(a2-3)Gal(b1-3)GlcNAc): -0.277 | glycan array binding signal (z-score) (Kdn(a2-3)Gal(b1-4)Glc): -0.279 | glycan array binding signal (z-score) (Kdn(a2-3)Gal(b1-4)GlcNAc): -0.279 | glycan array binding signal (z-score) [32]: -0.273 | glycan array binding signal (z-score) (Kdn(a2-6)Gal(b1-4)GlcNAc): -0.283 | glycan array binding signal (z-score) [33]: -0.282 | glycan array binding signal (z-score) [34]: -0.289 | glycan array binding signal (z-score) (Man(a1-2)Man(a1-3)Man): -0.269
